Measurements published in US11366114B2, “Genetically encoded fluorescent sensors for detecting ligand bias and intracellular signaling through cAMP pathways” (MONTANA MOLECULAR LLC, priority 2013, dated 2022).

System: cAMP
Experiment: Fluorescence response of cAMP sensors to isoproterenol in HEK 293 cells co-expressing the beta adrenergic receptor
Format: cell-based, human
Details: in response to isoproternol
Procedure: To test the functionality of these 28 prototype sensors, each construct was co-expressed with the beta adrenergic receptor, which couples to the Gs signaling pathway when activated by isoproteronol, in HEK 293 cells, and the fluorescence measured as described below. Briefly, 96-well glass-bottom plates were coated with Poly-D-Lysine (Fisher Scientific, Pittsburgh, Pa.) and HEK 293 were seeded and cultured in EMEM (ATCC, Manassas, Va.) supplemented with 10% fetal bovine serum and Penicillin-Streptomycin at 37 […] and 30 ng of beta adrenergic receptor per well, using Lipofectamine 2000 Transfection Reagent (Life Technologies, Grand Island, N.Y.) according to the manufacturer's protocol, and incubated for 24-48 hours at 37° C. in 5% CO2.
Prior to screening transfected cells for fluorescence, he EMEM culture medium was removed and 1×DPBS added to each well. A Zeiss Axiovert S100TV inverted microscope equipped with computer controlled excitation/emission filter wheels, shutters, and a Qimaging Retiga Exi CCD camera (Surrey, BC Canada) was used to image cells at 25e A) supplemented with 10% fetal bovine serum and Penicillin-Streptomycin at 37hn filters were used to resolve the green fluorescence from the cAMP sensors. Cells were analyzed for increases or decreases in fluorescence intensity upon addition of isoproternol, DMSO, forskolin and IBMX. To analyze the image stacks, background fluorescence was defined as a region of the image that contained no cells. The average value of this region was subtracted frame by frame from the measurements of the mean pixel values of the fluorescent cells. Fluorescence intensity data was plotted and analyzed with IGOR (Wavemetrics, Oswego, Oreg.).
For transient expression and screening in an automated fluorescence plate reader, HEK 293T cells were cultured in Corning Co-Star Polystyrene 96-well plates coated with Poly-D-Lysine. HEK293T cells were plated at 35,000 cells/well in 100 μl growth medium per well without antibiotics so that the cells would be 90-95% confluent at the time of transfection (approximately 24 hours later). For each transfection (i.e. one well in a 96-well plate), 160 ng of plasmid DNA (120 ng sensor+40 ng receptor) was diluted in […] and then the mixture was replaced with fresh medium. Prior to scanning a plate on the Biotek Synergy Mx, EMEM culture medium was replaced with 250 μl of 1×DPBS per well. Plates were read at 25° C., using monochromators set to 488/20 nm excitation and 530/20 nm emission to resolve the green fluorescence from the cAMP sensor.

B1: Library 4-2 B1: cAMP sensor from shuffled library 4; SEQ ID NO: 4 in Table 3, absent from Table 1 (protein)
chain: MVAAHAAHSSSSAEWIACLDKRPLERSSEDVDIIFTRLKEVKAFEKFHPNLLHQICLCGYYENLEKGITLFRQGDIGTNWYAVLAGSLDVKVSETSSHQDAVTICTLGIGTAFGESILDNTPRHATIVTRESSELLRIEQKDFKALWEKYRQYMAGLLAPPYGVMETGSNNDRIPDKENTPLIEPHVPLRPANTITKVPSEKILRAGKILRNAILSRAPHMIRDRKYHLKTYRQCCVGTELVDWMMQQTPCVHSRTQAVGMWQVLLEDGVLNHVDQEHHFQDKYLFYRFLDDEHEDAPLPTEEEKKECDEELQDTMLLLSQMGPDAHMRMILRKPPGQRTVDDLEIIYEELLHIKALSHLSTTVKRELAGVLIFESHAKGGTVLFNQGEEGTSWYIILKGSVNVVIYGKGVVCTLHEGDDFGKLALVNDAPRAASIVLREDNCHFLRVDKEDFNRILRLVSHNVYIKADKQKNGIKANFKIRHNIEDGGVQLAYHYQQNTPIGDGPVLLPDNHYLSVQSILSKDPNEKRDHMVLLEFVTAAGITLGMDELYKGGTGGSMVSKGEELFTGVVPIQVELDGDVNGHKFSVSGEGEGDATYGKLTLKFICTTGKLPVPWPTLVTTLTYGVQCFSRYPDHMKQHDFFKSAMPEGYIQERTIFFKDDGNYKTRAEVKFEGDTLVNRIELKGIDFKEDGNILGHKLEYNFNNPDVEANTVRLKEHDQDVLVLEKVPAGNRASNQGNSQPQQKYTVMSGTPEKILEHFLETIRLEATLNEATDSVLNDFIMMHCVFMPNTQLCPALVAHYHAQPSQGTEQEKMDYALNNKRRVIRLVLQWAAMYGDLLQEDDVSMAFLEEFYVSVSDDARMIAALKEQLPELEKIVKQISEDAKAPQKKHKVLLQQFNTGDERAQKRQPIRGSDEVLFKVYCMDPTYTTIRVPVATSVKEVISAVADKLGSGEGLIIVKMSSGGEKVVLKPNDVSVFMTLTINGRLFACPREQFDSLTPLPEQEGPTVGTVGTFELMSSKDLAYQMTIYDWELFNCVHELELIYHTFGRHNFKKTTANLDLFLRRFNEIQFWVVTEICLCSQLSKRVQLLKKFIKIAAHCKEYKNLNSFFAIVMGLSNVAVSRLALTWEKLPSKFKKFYAEFESLMDPSRNHRAYRLTVAKLEPPLIPFMPLLIKDMTFTHEGNKTFIDNLVNFEKMRMIANTARTVRYYRSQPFNPDAAQANKNHQDVRSYVRQLNVIDNQRTLSQMSHRLEPRRP
For B1, the “Relative Change in Fluorescence” value was 61%.
